Article PMC9911399, “Two distinct binding modes provide the RNA-binding protein RbFox with extraordinary sequence specificity”
Numbering of substitutions follows the chain as printed; changes in the protein carry UniProt numbers. The list shows a part of the results.

T1: RBFOX1 RRM (Homo sapiens, UniProt Q9NWB1 109-208)
T1 sequence: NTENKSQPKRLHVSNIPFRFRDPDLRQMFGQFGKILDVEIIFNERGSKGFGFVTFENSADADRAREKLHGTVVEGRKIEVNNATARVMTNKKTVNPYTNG

B1: CACUUGC (DNA:RNA)
RNA: GGGAGACCGGAAUUCAGAUUGUCCCACUUGCUUAAAUCCCGUCGUAGCCACCA
DNA 1: CAATCTGAATTCCGGTCTCCC
DNA 2: TGGTGGCTACGACGGGATT
B2: GCGUCGG (DNA:RNA)
RNA: B1 RNA with C25G, A26C, C27G, U29C, C31G
DNA 1: CAATCTGAATTCCGGTCTCCC
DNA 2: TGGTGGCTACGACGGGATT
B3: CAGUUCU (DNA:RNA)
RNA: B1 RNA with C27G, G30C, C31U
DNA 1: CAATCTGAATTCCGGTCTCCC
DNA 2: TGGTGGCTACGACGGGATT
B4: CUCCAGA (DNA:RNA)
RNA: B1 RNA with A26U, U28C, U29A, C31A
DNA 1: CAATCTGAATTCCGGTCTCCC
DNA 2: TGGTGGCTACGACGGGATT
B5: GCCCAGU (DNA:RNA)
RNA: B1 RNA with C25G, A26C, U28C, U29A, C31U
DNA 1: CAATCTGAATTCCGGTCTCCC
DNA 2: TGGTGGCTACGACGGGATT
B6: CUUUAAA (DNA:RNA)
RNA: B1 RNA with A26U, C27U, U29A, G30A, C31A
DNA 1: CAATCTGAATTCCGGTCTCCC
DNA 2: TGGTGGCTACGACGGGATT
B7: GCCGAUG (DNA:RNA)
RNA: B1 RNA with C25G, A26C, U28G, U29A, G30U, C31G
DNA 1: CAATCTGAATTCCGGTCTCCC
DNA 2: TGGTGGCTACGACGGGATT
B8: GCACCAG (DNA:RNA)
RNA: GGGAGACCGGAAUUCAGAUUGUCCGCACCAGUUAAAUCCCGUCGUAGCCACCA
DNA 1: CAATCTGAATTCCGGTCTCCC
DNA 2: TGGTGGCTACGACGGGATT
B9: UAAGCAU (DNA:RNA)
RNA: B8 RNA with G25U, C26A, C28G, G31U
DNA 1: CAATCTGAATTCCGGTCTCCC
DNA 2: TGGTGGCTACGACGGGATT
B10: CGAUGAU (DNA:RNA)
RNA: B1 RNA with A26G, C27A, U29G, G30A, C31U
DNA 1: CAATCTGAATTCCGGTCTCCC
DNA 2: TGGTGGCTACGACGGGATT
B11: GGUAGUA (DNA:RNA)
RNA: B8 RNA with C26G, A27U, C28A, C29G, A30U, G31A
DNA 1: CAATCTGAATTCCGGTCTCCC
DNA 2: TGGTGGCTACGACGGGATT
B12: CCCAGAA (DNA:RNA)
RNA: B1 RNA with A26C, U28A, U29G, G30A, C31A
DNA 1: CAATCTGAATTCCGGTCTCCC
DNA 2: TGGTGGCTACGACGGGATT
B13: ACCGUUU (DNA:RNA)
RNA: B1 RNA with C25A, A26C, U28G, G30U, C31U
DNA 1: CAATCTGAATTCCGGTCTCCC
DNA 2: TGGTGGCTACGACGGGATT
B14: AGGUUCU (DNA:RNA)
RNA: B1 RNA with C25A, A26G, C27G, G30C, C31U
DNA 1: CAATCTGAATTCCGGTCTCCC
DNA 2: TGGTGGCTACGACGGGATT
B15: AUCGGCU (DNA:RNA)
RNA: B1 RNA with C25A, A26U, U28G, U29G, G30C, C31U
DNA 1: CAATCTGAATTCCGGTCTCCC
DNA 2: TGGTGGCTACGACGGGATT
B16: CAUCGAU (DNA:RNA)
RNA: B1 RNA with C27U, U28C, U29G, G30A, C31U
DNA 1: CAATCTGAATTCCGGTCTCCC
DNA 2: TGGTGGCTACGACGGGATT
B17: GCCACAC (DNA:RNA)
RNA: B8 RNA with A27C, C28A, G31C
DNA 1: CAATCTGAATTCCGGTCTCCC
DNA 2: TGGTGGCTACGACGGGATT
B18: UUCGUCU (DNA:RNA)
RNA: B1 RNA with C25U, A26U, U28G, G30C, C31U
DNA 1: CAATCTGAATTCCGGTCTCCC
DNA 2: TGGTGGCTACGACGGGATT
B19: CAGGGGC (DNA:RNA)
RNA: B1 RNA with C27G, U28G, U29G
DNA 1: CAATCTGAATTCCGGTCTCCC
DNA 2: TGGTGGCTACGACGGGATT
B20: UCCAGGA (DNA:RNA)
RNA: B1 RNA with C25U, A26C, U28A, U29G, C31A
DNA 1: CAATCTGAATTCCGGTCTCCC
DNA 2: TGGTGGCTACGACGGGATT

molecular target: T1, RBFOX1 RRM; assay: EMSA; HiTS-Eq, 1 nM pool, 10 min; buffer printed only for the single-RNA assays: 10 mM Tris pH 7.5, 150 mM NaCl, 3.4 mM EDTA, 0.001% NP-40, 30 C; conditions: tags: His6 N-terminal (pET28a); label: 5' 32P
Summary of the method: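 Relative association constants, normalised to the cognate motif, were derived by comparing read counts of each RNA species with those of the control reaction. The RNA sequenced was the free fraction, separated by 8% native PAGE after a 10 min equilibration in 50 µL of 1 nM 5′-radiolabelled RNA (7 randomized nucleotides) with increasing concentrations of purified wild-type or mutant RbFox RRM.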

Binder	binding signal
B1	0.00965 KA relative to UGCAUGU
B2	0.0208 KA relative to UGCAUGU
B3	0.00766 KA relative to UGCAUGU
B4	0.00673 KA relative to UGCAUGU
B5	0.0115 KA relative to UGCAUGU
B6	0.00297 KA relative to UGCAUGU
B7	0.0184 KA relative to UGCAUGU
B8	0.00792 KA relative to UGCAUGU
B9	0.0125 KA relative to UGCAUGU
B10	0.0156 KA relative to UGCAUGU
B11	0.00878 KA relative to UGCAUGU
B12	0.000615 KA relative to UGCAUGU
B13	0.00458 KA relative to UGCAUGU
B14	0.00564 KA relative to UGCAUGU
B15	0.00974 KA relative to UGCAUGU
B16	0.00404 KA relative to UGCAUGU
B17	0.00584 KA relative to UGCAUGU
B18	0.0186 KA relative to UGCAUGU
B19	0.0109 KA relative to UGCAUGU
B20	0.00808 KA relative to UGCAUGU
